About 110 (3.4%) of roughly 3,200 compounds showed an effect of 50% or more. The list shows a part of the results.
test system: T1, V. cholerae SAD30; set-up: species or system S. aureus MSSA476 (TSB) or V. cholerae SAD30 (LB); 384-well bacterial growth screen at 25 uM, OD600 relative to DMSO control; settings: relative growth, OD600, LB; 25 µM; inhibitor
T1 construct: SAD30

SMILES	% of control remaining [%]
O=C(CCl)N(Cc1ccc(Cl)c([N+](=O)[O-])c1)c1ccccc1 [6-H06, 2-chloro-N-[(4-chloro-3-nitrophenyl)methyl]-N-phenylacetamide]	93.4307
C=CC(=O)Nc1cccc2ccccc12 [1-G10, N-(naphthalen-1-yl)prop-2-enamide]	85.7997
Cc1ccc(-n2c(C)cc(C(=O)CCl)c2C)cc1F [10-C06, 2-chloro-1-[1-(3-fluoro-4-methylphenyl)-2,5-dimethyl-1H-pyrrol-3-yl]ethan-1-one]	94.9153
Cc1ccc(C(CNC(=O)C(C)Cl)N2CCOCC2)s1 (stereo not drawn) [7-N13, 2-chloro-N-[2-(5-methylthiophen-2-yl)-2-(morpholin-4-yl)ethyl]propanamide]	78.6387
COc1cc(C=C(C#N)C(=O)Nc2ccc3c(c2)OCCO3)ccc1O [8-N06, 2-cyano-N-(2,3-dihydro-1,4-benzodioxin-6-yl)-3-(4-hydroxy-3-methoxyphenyl)prop-2-enamide]	70.9041
CC(Cl)C(=O)Nc1cccc(Cl)c1 (stereo not drawn) [5-H22, 2-chloro-N-(3-chlorophenyl)propanamide]	106.42
COc1ccc(C(C)(C)C)cc1NC(=O)CCl [4-C07, N-(5-tert-butyl-2-methoxyphenyl)-2-chloroacetamide]	98.3394
CCC1CN(CCn2cccn2)CCN1C(=O)C(C)Cl (stereo not drawn) [7-F07, 2-chloro-1-{2-ethyl-4-[2-(1H-pyrazol-1-yl)ethyl]piperazin-1-yl}propan-1-one]	83.1323
C=CC(=O)N1CC(S(=O)(=O)N2CCOCC2)C1 [2-A16, 1-[3-(morpholine-4-sulfonyl)azetidin-1-yl]prop-2-en-1-one]	94.0558
C=CC(=O)N1CCC(Cc2nc3ccc(F)cc3o2)CC1 [3-O07, 1-{4-[(6-fluoro-1,3-benzoxazol-2-yl)methyl]piperidin-1-yl}prop-2-en-1-one]	99.1472
Cc1nn(C)c(C)c1NC(=O)C(C)Cl (stereo not drawn) [6-C07, 2-chloro-N-(1,3,5-trimethyl-1H-pyrazol-4-yl)propanamide]	93.279
N#CC(=Cc1cccc(Cl)c1)C(=O)NCc1ccccc1 [9-L13, N-benzyl-3-(3-chlorophenyl)-2-cyanoprop-2-enamide]	62.7464
N#CC(=Cc1cnc(-c2ccccc2)nc1)C(=O)NCc1ccco1 [9-M14, 2-cyano-N-[(furan-2-yl)methyl]-3-(2-phenylpyrimidin-5-yl)prop-2-enamide]	95.2413
C=CC(=O)N(C)CC(=O)NC1CCCN(c2cc(C)nc(C)n2)C1 (stereo not drawn) [3-A12, N-({[1-(2,6-dimethylpyrimidin-4-yl)piperidin-3-yl]carbamoyl}methyl)-N-methylprop-2-enamide]	113.968
C=CC(=O)N1CCC(C(=O)NCc2ccccc2-n2cccn2)CC1 [3-N03, 1-(prop-2-enoyl)-N-{[2-(1H-pyrazol-1-yl)phenyl]methyl}piperidine-4-carboxamide]	103.382
C=CC(=O)NCc1ccsc1-n1cccc1 [1-K08, N-{[2-(1H-pyrrol-1-yl)thiophen-3-yl]methyl}prop-2-enamide]	82.9596
C=CC(=O)N1CCC(CC(C)(C)C)C1 (stereo not drawn) [2-O19, 1-[3-(2,2-dimethylpropyl)pyrrolidin-1-yl]prop-2-en-1-one]	86.6448
CC(Cl)C(=O)Nc1ccccc1C#N (stereo not drawn) [6-A11, 2-chloro-N-(2-cyanophenyl)propanamide]	96.0091
CC(Cl)C(=O)Nc1cccc(S(=O)(=O)N(C)C)c1 (stereo not drawn) [5-A07, 2-chloro-N-[3-(dimethylsulfamoyl)phenyl]propanamide]	104.403
CN(CC(=O)Nc1ccc(Cl)c(C(F)(F)F)c1)C(=O)CCl [4-E19, 2-chloro-N-({[4-chloro-3-(trifluoromethyl)phenyl]carbamoyl}methyl)-N-methylacetamide]	95.234
C=CC(=O)Nc1ccc(N2CCCCC2)c(F)c1 [2-I22, N-[3-fluoro-4-(piperidin-1-yl)phenyl]prop-2-enamide]	107.025
CN(CC(=O)NC1CCC(O)CC1)C(=O)CCl (stereo not drawn) [7-L08, 2-chloro-N-{[(4-hydroxycyclohexyl)carbamoyl]methyl}-N-methylacetamide]	83.2645
O=C(CCl)Nc1cccc(NC(=O)c2ccccc2)c1 [6-A03, N-[3-(2-chloroacetamido)phenyl]benzamide]	105.565

SMILES	% of control remaining [%]
N#CC(=Cc1ccsc1)C(=O)Nc1ccccc1Cl [9-O05, N-(2-chlorophenyl)-2-cyano-3-(thiophen-3-yl)prop-2-enamide]	98.9123
Cc1nn(C)c(C)c1C=C(C#N)C(=O)Nc1ccccc1Cl [9-F11, N-(2-chlorophenyl)-2-cyano-3-(1,3,5-trimethyl-1H-pyrazol-4-yl)prop-2-enamide]	85.9959
CC(Cl)C(=O)N(C)C[C@@H]1C[C@H](F)CN1c1ccnc(N(C)C)n1 (stereo partly drawn) [7-K16, 2-chloro-N-{[(2S,4S)-1-[2-(dimethylamino)pyrimidin-4-yl]-4-fluoropyrrolidin-2-yl]methyl}-N-methylpropanamide]	71.1052
O=C(CCl)N(Cc1ccco1)c1ccccc1 [4-L14, 2-chloro-N-[(furan-2-yl)methyl]-N-phenylacetamide]	102.998
C=CC(=O)N(C)CC(=O)N1CCN(C(=O)C2CCCCC2)CC1 [3-O10, N-[2-(4-cyclohexanecarbonylpiperazin-1-yl)-2-oxoethyl]-N-methylprop-2-enamide]	102.323
C=CC(=O)N1CCC(C(=O)Nc2ccc3c(c2)CCN3C(N)=O)CC1 [3-E16, 5-[1-(prop-2-enoyl)piperidine-4-amido]-2,3-dihydro-1H-indole-1-carboxamide]	90.5017
O=C(CCl)N(Cc1ccccc1)Cc1ccco1 [5-F22, N-benzyl-2-chloro-N-[(furan-2-yl)methyl]acetamide]	104.066
C=CC(=O)N(Cc1cn(C)nc1CC)C1CCCCCC1 [1-H09, N-cycloheptyl-N-[(3-ethyl-1-methyl-1H-pyrazol-4-yl)methyl]prop-2-enamide]	81.0164
C=CC(=O)N(C)CC(=O)N1CCC(CN2CCCCC2=O)CC1 [2-F16, N-methyl-N-(2-oxo-2-{4-[(2-oxopiperidin-1-yl)methyl]piperidin-1-yl}ethyl)prop-2-enamide]	88.6519
O=C1C=CC(=O)N1CCc1ccc(F)cc1 [10-C21, 1-[2-(4-fluorophenyl)ethyl]-2,5-dihydro-1H-pyrrole-2,5-dione]	34.7555
CC(Cl)C(=O)N1CCc2c(nnn2C)C1 (stereo not drawn) [7-G22, 2-chloro-1-{1-methyl-1H,4H,5H,6H,7H-[1,2,3]triazolo[4,5-c]pyridin-5-yl}propan-1-one]	90.1371
O=C(CCl)Nc1ccc(Cl)cc1F [4-E03, 2-chloro-N-(4-chloro-2-fluorophenyl)acetamide]	111.279
O=C(CCl)N1CCC(C2CCCN(C(=O)C(F)(F)F)C2)CC1 (stereo not drawn) [5-E20, 1-[1'-(2-chloroacetyl)-[3,4'-bipiperidin]-1-yl]-2,2,2-trifluoroethan-1-one]	100.2
CSc1ccc(C=C(C#N)C(=O)Nc2cccc(Cl)c2C)cc1 [8-N11, N-(3-chloro-2-methylphenyl)-2-cyano-3-[4-(methylsulfanyl)phenyl]prop-2-enamide]	71.7199
CC1CC(C)CN(S(=O)(=O)c2ccc(NC(=O)CCl)cc2)C1 (stereo not drawn) [4-K16, 2-chloro-N-{4-[(3,5-dimethylpiperidin-1-yl)sulfonyl]phenyl}acetamide]	100.237
CC(c1ccc(C(F)(F)F)c(Cl)c1)N(C)C(=O)CCl (stereo not drawn) [7-F14, 2-chloro-N-{1-[3-chloro-4-(trifluoromethyl)phenyl]ethyl}-N-methylacetamide]	73.8807
CC(Cl)C(=O)Nc1ccccc1[N+](=O)[O-] (stereo not drawn) [4-G18, 2-chloro-N-(2-nitrophenyl)propanamide]	96.0966
N#CC(=Cc1cccc(Cl)c1Cl)C(=O)NCc1ccco1 [8-P04, 2-cyano-3-(2,3-dichlorophenyl)-N-[(furan-2-yl)methyl]prop-2-enamide]	76.0707
CCN(C(=O)C(C)Cl)c1ccccc1 (stereo not drawn) [4-P16, 2-chloro-N-ethyl-N-phenylpropanamide]	121.63
N#CC(=Cc1cccc(O)c1)C(=O)Nc1ccc(N2CCOCC2)cc1 [8-I14, 2-cyano-3-(3-hydroxyphenyl)-N-[4-(morpholin-4-yl)phenyl]prop-2-enamide]	71.0401
CN(C)S(=O)(=O)c1ccc(NC(=O)CCl)cc1 [5-J11, 2-chloro-N-[4-(dimethylsulfamoyl)phenyl]acetamide]	99.359
CC(C)C(NC(=O)CCl)c1ccc2c(c1)OCCCO2 (stereo not drawn) [4-N14, 2-chloro-N-[1-(3,4-dihydro-2H-1,5-benzodioxepin-7-yl)-2-methylpropyl]acetamide]	102.998
